Assay [1] concerns the target T1, monkey EGFR protein (commercial, SB, catalog number 90285-C08H) (monkey).
T1 construct: Bought protein used to coat ELISA plates
Kind of assay: ELISA, coated monkey EGFR protein, antibody 0.0001 nM. On the technique in general: In an ELISA, binding on a coated surface is turned into a signal by an enzyme label.

Assay [2] addresses T1, monkey EGFR protein (commercial, SB, …). The assay is described as follows: ELISA, coated monkey EGFR protein, antibody 0 nM (blank).
Assay [3] shares this target. The assay is described as follows: ELISA, coated monkey EGFR protein, antibody 10 nM.
The target is the same in assay [4]. The assay is described as follows: ELISA, coated monkey EGFR protein, antibody 0.1 nM.
Assay [5] deals with T2, cynomolgus monkey EGFR on HEK293T-monkey EGFR cells (cynomolgus monkey, UniProt P55245 (rhesus entry)). Kind of assay: FACS, HEK293T-monkey EGFR cells (specificity assay). (In flow cytometry, cells or beads pass a laser one at a time.)
For assay [6], the target named is T1, monkey EGFR protein (commercial, SB, …). Kind of assay: ELISA, coated monkey EGFR protein, antibody 0.01 nM.
For assay [7] the target is unchanged. Kind of assay: ELISA, coated monkey EGFR protein, antibody 1 nM.
Assay [8] concerns the target T2, cynomolgus monkey EGFR on …. The assay is described as follows: FACS, HEK293T-monkey EGFR cells.
Assay [9] has as its target T1, monkey EGFR protein (commercial, SB, …). Kind of assay: ELISA, coated monkey EGFR protein, antibody 0.001 nM.
The target is the same in assay [10]. Kind of assay: ELISA, coated monkey EGFR protein, antibody 100 nM.
The target in assay [11] is T3, Her2 protein (human, UniProt P04626 fragment).
T3 construct: Bought protein; also called human Her2 protein

Assay [12] concerns the target T3, Her2 protein. The source holds these as a separate data set.
For assay [13], the target named is T3, Her2 protein. The source holds these as a separate data set.
The target of the next assay is T4, monkey EGFR protein (cynomolgus monkey, UniProt P55245 fragment (rhesus entry)).
T4 construct: Bought protein (SB 90285-C08H); also called cynomolgus monkey EGFR

Assay [14] addresses T3, Her2 protein. This is another data set of the same source.
Assay [15] deals with T3, Her2 protein. This is another data set of the same source.
The target in assay [16] is T3, Her2 protein. This is another data set of the same source.
Assay [17] has as its target T3, Her2 protein. The source holds these as a separate data set.
For assay [18], the target named is T3, Her2 protein. The source holds these as a separate data set.

Where two headings read alike, the source gives them in different places.

B1: S008-NB148-52 VHH-Fc antibody (Fc fusion)
chain: EVQLVESGGGLVQAGGSLRLSCAASGFRIINDRMAWYRQAPGKQREAVASIDYAGSTTYAEFVKGRFTISRDNTKNMVTLQMNNLEPEDTAVYYCNTAPIARFRGQGTQVTVSS[human IgG1 Fc with changes not shown]
notes: VHH fused to human IgG1 hinge and Fc
A word on the EC50: it is the midpoint of the concentration-response curve. In the case of B1, the OD450 in assay [1] is 0.07; in [2], 0.06; in assay [3], 2.49; in assay [4], 2.01; in [6], 0.81; in assay [7] it was 2.27. Moreover, the OD450 in assay [9] came out at 0.17; in [10], 2.75. This molecule also displayed a Max_MFI in assay [5] of 6620. In assay [8], this molecule gave an EC50 of 123 nM. For the same molecule, the “Max MFI” value in assay [8] came to 9570.

B2: S008-NB148-52 (Fc fusion)
chain: EVQLVESGGGLVQAGGSLRLSCAASGFRIINDRMAWYRQAPGKQREAVASIDYAGSTTYAEFVKGRFTISRDNTKNMVTLQMNNLEPEDTAVYYCNTAPIARFRGQGTQVTVSS[human IgG1 Fc with changes not shown]
notes: Tested as VHH-Fc; order VHH-hinge-Fc inferred
In general, Kd refers to the free concentration of one partner at which half of the binding sites on the other are occupied at equilibrium, for simple one-to-one binding. As a reminder, the koff is the rate constant with which the complex falls apart. A word on the kon: it is a measure of how fast the partners come together. In the case of B2, the OD450 with Her2 protein [11] turned out to be 0.11; with Her2 protein [12], 0.17; with Her2 protein [13] it was 0.15; with Her2 protein [14] it was 0.12; in the assay with Her2 protein [15], 0.12; with Her2 protein [16] it was 0.1. The results for the OD450 in the assay with Her2 protein [17] and in the assay with Her2 protein [18] were 0.21 and 0.28, respectively. The Kd in the assay with monkey EGFR protein worked out at 6.63 nM. Also, the koff in the assay with monkey EGFR protein was 0.000395 s⁻¹. In the assay with monkey EGFR protein, this molecule gave a kon of 59600 M⁻¹ s⁻¹.

B3: S008-NB148-70 VHH-Fc antibody (Fc fusion)
chain: QVQLVESGGGLVQAGGSLRLSCAASEGTLSSEAMGWHRLAPGKQRESVGFISSGGSTNYRDSVKGRFTISRDNAKNTVYLQMNSLKPEDTGVYFCRIPNSVGPWGQGTQVTVSS[human IgG1 Fc with changes not shown]
notes: as for B1
In the case of B3, the OD450 in assay [1] is 0.06; in assay [2], 0.06; in assay [3], 2.61; in [4], 2.09; in assay [6], 0.67; in assay [7], 2.5. Also, the OD450 was found to be 0.14 in assay [9] and 2.74 in [10]. In [5], the Max_MFI came out at 8500. The molecule further returned an EC50 in assay [8] of 2.13 nM. The “Max MFI” value in assay [8] is 12000.

B4: S008-NB148-70 (Fc fusion)
chain: QVQLVESGGGLVQAGGSLRLSCAASEGTLSSEAMGWHRLAPGKQRESVGFISSGGSTNYRDSVKGRFTISRDNAKNTVYLQMNSLKPEDTGVYFCRIPNSVGPWGQGTQVTVSS[human IgG1 Fc with changes not shown]
notes: as for B2
With B4, the OD450 with Her2 protein [11] is 0.1; in the assay with Her2 protein [12], 0.16; with Her2 protein [13] it was 0.09; with Her2 protein [14], 0.15; with Her2 protein [15] it was 0.08; with Her2 protein [16], 0.1. Further, the OD450 came out at 0.16 in the assay with Her2 protein [17] and 0.14 with Her2 protein [18]. In the assay with monkey EGFR protein, this molecule showed a Kd of 2.11 nM. Besides, the koff with monkey EGFR protein came out at 0.000154 s⁻¹. Besides, the kon with monkey EGFR protein was found to be 73000 M⁻¹ s⁻¹.

B5: S008-NB149-20 VHH-Fc antibody (Fc fusion)
chain: EVQVVESGGGLVQPGGSLRLSCAASGSGFTINAMTWYRRAPGKERELVAIITNGGITNYADSVKGRFTISRDNAKSTVYLQMDGLEPEDTAVYYCNIVPPVYWGQGTQVTVSS[human IgG1 Fc with changes not shown]
notes: as for B1
Take B5: the OD450 in [1] worked out at 0.08; in assay [2], 0.06; in [3] it was 2.26; in assay [4], 1.93; in [6] it was 0.97; in [7], 2.27. Besides, the OD450 in assay [9] worked out at 0.22; in assay [10] it was 2.43. In addition, the Max_MFI in assay [5] worked out at 9960. The same molecule gave an EC50 in [8] of 27.9 nM. For the same molecule, the “Max MFI” value in assay [8] came to 17000.

B6: S008-NB148-10 (Fc fusion)
chain: QVQLVESGGGLVQAGGSLRLSCAAFISTFGRTDMTWYRQRSGNEREFVARISSGGSTIYADSAKGRFTISRDNVKNTVYLQMNSLTPEDTAVYYCNTVPPRGSWSQGTQVTVSS[human IgG1 Fc with changes not shown]
notes: Tested as VHH-Fc (vector BI3.4-huIgG1, HEK293E); also called S00N-NB1 48-10
Take B6: the OD450 amounted to 0.15 in the assay with Her2 protein [11]; 0.25 in the assay with Her2 protein [12]; 0.09 with Her2 protein [13]; 0.11 in the assay with Her2 protein [14]; 0.13 in the assay with Her2 protein [15]; 0.08 with Her2 protein [16]. Moreover, the OD450 with Her2 protein [17] came to 0.1; in the assay with Her2 protein [18], 0.13. Further, binding with monkey EGFR protein was characterised by a dissociation constant (Kd) of 10.6 nM. The koff in the assay with monkey EGFR protein is 0.000639 s⁻¹. Moreover, in the assay with monkey EGFR protein, the kon is 60400 M⁻¹ s⁻¹.

B7: S008-NB149-2 VHH-Fc antibody (Fc fusion)
chain: QVQLVESGGGLVQPGGSLRLSCAASGFSLDAYAIGWFRQAPGMGREGVSCISSAGNTDYADSVKGRFAISRDNAKNTVYLQMNSLKPEDSGVYYCARTSEGVYRGRLACALYESAADFRSGGQGTRVTVSS[human IgG1 Fc with changes not shown]
notes: as for B1
For B7, the OD450 is 0.06 in assay [1]; 0.08 in assay [2]; 2.3 in [3]; 1.63 in [4]; 0.43 in [6]; 2.15 in assay [7]. Further, the OD450 was 0.1 in assay [9] and 2.67 in [10]. In assay [5], this molecule came in with a Max_MFI of 1330. The molecule also showed an EC50 in assay [8] of 174 nM. In assay [8], the “Max MFI” value came to 1370.

B8: S008-NB149-2 (Fc fusion)
chain: QVQLVESGGGLVQPGGSLRLSCAASGFSLDAYAIGWFRQAPGMGREGVSCISSAGNTDYADSVKGRFAISRDNAKNTVYLQMNSLKPEDSGVYYCARTSEGVYRGRLACALYESAADFRSGGQGTRVTVSS[human IgG1 Fc with changes not shown]
notes: as for B2
Consider B8, for which the OD450 with Her2 protein [11] was found to be 0.22; in the assay with Her2 protein [12], 0.21; in the assay with Her2 protein [13] it was 0.19; with Her2 protein [14] it was 0.14; with Her2 protein [15], 0.08; with Her2 protein [16], 0.14. The OD450 in the assay with Her2 protein [17] worked out at 0.18; with Her2 protein [18], 0.12. For the same molecule, the Kd with monkey EGFR protein stood at 7.95 nM. Further, the koff in the assay with monkey EGFR protein came to 0.000482 s⁻¹. For the same molecule, the kon with monkey EGFR protein is 60600 M⁻¹ s⁻¹.

B9: S008-NB149-1 VHH-Fc antibody (Fc fusion)
chain: EVQVVESGGGTVQAGGSLRLSCAASARTFANAHMAWFRQAPGKEREFLAAITWSGGITDYANSVKGRFTISRDNAENAMYLQMNSLKPEDTAIYICAVDTTSAYDQLWSRQSEYEYWGQGTQVTVSS[human IgG1 Fc with changes not shown]
notes: as for B1
Consider B9, for which the OD450 was 0.04 in assay [1]; 0.04 in assay [2]; 1.81 in assay [3]; 1.29 in assay [4]; 0.35 in assay [6]; 1.7 in [7]. Moreover, the OD450 came to 0.1 in [9] and 1.69 in assay [10]. For the same molecule, in [5], the Max_MFI worked out at 5300. For the same molecule, in assay [8], a half-maximal effect (EC50) was put at 1.1 nM. Besides, the “Max MFI” value in [8] was 16500.

B10: S008-NB149-1 (Fc fusion)
chain: EVQVVESGGGTVQAGGSLRLSCAASARTFANAHMAWFRQAPGKEREFLAAITWSGGITDYANSVKGRFTISRDNAENAMYLQMNSLKPEDTAIYICAVDTTSAYDQLWSRQSEYEYWGQGTQVTVSS[human IgG1 Fc with changes not shown]
notes: as for B2
As to B10, the OD450 with Her2 protein [11] amounted to 0.16; with Her2 protein [12] it was 0.15; in the assay with Her2 protein [13], 0.09; with Her2 protein [14], 0.07; in the assay with Her2 protein [15], 0.09; with Her2 protein [16], 0.13. Further, the OD450 in the assay with Her2 protein [17] worked out at 0.23; with Her2 protein [18] it was 0.13. Further, the Kd with monkey EGFR protein was found to be 5.46 nM. The same molecule came in with a koff with monkey EGFR protein of 0.000649 s⁻¹. The same molecule displayed a kon in the assay with monkey EGFR protein of 119000 M⁻¹ s⁻¹.

The values are drawn from US20240101686A1 (SIMCERE ZAIMING PHARMACEUTICAL, published 2024).
